In the supplement of paper PMC12217912:
The other results are listed elsewhere or left out. Sequences were assembled here from the parent chain. Inactive controls read about 0.05.

B1: TEV protease; numbered along this chain (parent)
chain: MGESLFKGPRDYNPISSSICHLTNESDGHTTSLYGIGFGPFIITNKHLFRRNNGTLVVQSLHGVFKVKDTTTLQQHLVDGRDMIIIRMPKDFPPFPQKLKFREPQREERICLVTTNFQTKSMSSMVSDTSCTFPSGDGIFWKHWIQTKDGQCGSPLVSTRDGFIVGIHSASNFTNTNNYFTSVPKNFMELLTNQEAQQWVSGWRLNADSVLWGGHKVFMVKPEEPFQPVKEATQL

Variants of: B1
Test: raw area under fraction-flipped curve 0-4 h after induction (AUC4h, not background-subtracted), DNA-recorder readout of cleavage of the substrate (dimensionless); higher = more cleavage of the substrate by the protease variant
Conditions: temperature: 34 °C; time window: 0-4 h after rhamnose induction
Description: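 In vivo DNA recorder in E. coli TOP10(DE3) ΔrhaA at 34 °C. Each TEVp single-site mutant (parent TEVp 0) is paired with a single-site variant of the 7-mer TEVs (canonical ENLYFQ|S). The substrate sits between flexible linkers in a Bxb1-sfGFP-TEVs-SsrA fusion, so cleavage stabilises Bxb1 and speeds flipping of a recombination array, read by NGS. The value is the raw area under the fraction-flipped curve over 0-4 h after rhamnose induction (AUC4h), with ≥20 reads per time point. It is not background-subtracted; inactive controls average about 0.047.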
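Note: Bxb1 expression induced with 0.2% (w/v) L-rhamnose at OD600 near 0.5, cultures sampled hourly, flipped fraction per protease–substrate barcode pair counted by paired-end Illumina sequencing.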

Row | Variant | area with substrate ENLAFQS | area with substrate ENLCFQS | area with substrate ENLDFQS | area with substrate ENLEFQS | area with substrate ENLFFQS | area with substrate ENLHFQS | area with substrate ENLIFQS | area with substrate ENLKFQS | area with substrate ENLLFQS | area with substrate ENLMFQS | area with substrate ENLNFQS | area with substrate ENLPFQS | area with substrate ENLQFQS | area with substrate ENLTFQS | area with substrate ENLVFQS | area with substrate ENLWFQS | area with substrate ENLGFQS | area with substrate ENLRFQS | area with substrate ENLSFQS
1 | R109W | 0.0717 | 0.0487 | 0.0614 | 0.0684 | 0.0958 | 0.0658 | 0.078 | 0.0743 | 0.0684 | 0.0722 | 0.0613 | 0.0519 | 0.0715 | 0.0539 | 0.081 | 0.0754 |  |  | 
2 | I110D | 0.0405 | 0.0629 | 0.0514 | 0.0517 | 0.0651 | 0.048 |  | 0.0605 | 0.0497 |  | 0.0554 | 0.0443 | 0.0541 |  | 0.0518 |  | 0.0456 | 0.0516 | 0.0604
3 | I110T | 0.0636 | 0.0724 | 0.0513 | 0.0535 | 0.062 | 0.0612 | 0.064 | 0.0692 |  | 0.0698 | 0.0558 | 0.0661 | 0.0536 |  | 0.0752 | 0.0694 | 0.0611 | 0.0689 | 0.0501
4 | C111S | 0.0676 | 0.0643 | 0.0717 | 0.0555 | 0.0901 |  | 0.0828 | 0.094 | 0.0616 | 0.0724 | 0.0694 | 0.0713 |  |  | 0.0967 |  | 0.0626 | 0.0772 | 0.0668
5 | T114Y | 0.059 |  | 0.0676 |  | 0.0824 |  | 0.0844 | 0.072 | 0.0825 | 0.0681 | 0.0618 |  | 0.0694 |  |  |  | 0.0743 | 0.0739 | 
6 | S121H | 0.0775 |  | 0.0625 | 0.0628 | 0.0916 | 0.0684 | 0.0872 | 0.0913 | 0.0742 | 0.0818 | 0.0528 | 0.0611 |  |  | 0.106 |  |  | 0.0692 | 0.0609
7 | S121M | 0.0698 | 0.0729 | 0.0626 | 0.0607 | 0.0759 | 0.0784 | 0.076 | 0.0748 | 0.0754 |  | 0.0638 | 0.0719 | 0.0739 | 0.0673 | 0.0687 |  |  | 0.0871 | 0.0628
8 | S121W | 0.0664 | 0.0811 | 0.069 |  | 0.0845 | 0.0611 | 0.072 | 0.0792 | 0.086 |  | 0.0544 | 0.0611 |  |  |  |  |  | 0.0777 | 0.0638
9 | S123D | 0.0497 | 0.0732 | 0.0678 | 0.0624 | 0.0823 | 0.0701 | 0.086 | 0.0748 | 0.0636 | 0.0693 | 0.0629 | 0.0443 |  |  |  | 0.0725 | 0.0718 | 0.0659 | 0.0703
10 | S123I | 0.0531 | 0.0885 | 0.0631 | 0.0751 | 0.0951 | 0.065 |  | 0.0759 | 0.0675 | 0.0738 | 0.0675 | 0.0612 | 0.0741 |  | 0.0807 | 0.0511 |  | 0.0673 | 0.0459
11 | S124V | 0.0625 |  | 0.0666 |  | 0.0818 | 0.0666 | 0.0959 | 0.0801 | 0.073 | 0.0778 | 0.0587 | 0.0572 | 0.0704 | 0.06 | 0.0835 | 0.0725 |  |  | 0.0604
12 | V126A | 0.0528 | 0.0757 | 0.0617 | 0.0663 | 0.0986 | 0.0577 | 0.0852 | 0.0601 |  | 0.0723 | 0.0654 | 0.0653 | 0.0919 |  | 0.098 | 0.0673 | 0.0642 |  | 0.0611
